Reference: the supplement of paper PMC10037445
In all, about 2,900 compounds were measured (“IRF Lucia reporter activity, fold change vs agonist alone”: median about 0.9, highest 2% from about 2.8 on). This is one part of the list.

Columns and labels:
RAW-Dual [1] = assay: IRF Lucia reporter activity, fold change vs agonist alone; cytotoxicity flag (confluency mask): not cytotoxic; higher = enhanced IRF activity
Outline: (§1)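 Cytotoxic wells were those whose IncuCyte confluency was below 70% of agonist controls in both mask sets. The cells were RAW-Dual macrophages at 50,000 cells/well in DMEM on 384-well plates, dosed with 50 nL of library stock by pin tool, stimulated with a PRR agonist 1 h later, and kept at 37 °C, 5% CO2 for 20 hours. IRF and NF-κB reporter activity, as fold change over agonist-alone wells, came from supernatant read by QuantiLuc luminescence and QuantiBlue absorbance, respectively.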

RAW-Dual [2] = assay: IRF Lucia reporter activity, fold change vs agonist alone; higher = enhanced IRF activity; conditions: library stock concentration (final ~1000-fold dilution): 10 mM; cytotoxicity flag (confluency mask): not cytotoxic; agonist: MPLA (TLR4) […]
Outline: as §1

[3] = agonist: 3'3'-cGAMP (STING) 10 ug/mL

Structure (SMILES)	IRF Lucia reporter activity (RAW-Dual [1]; [3])	IRF Lucia reporter activity (RAW-Dual [1]; agonist: LPS (TLR4) 0.1 ug/mL)	IRF Lucia reporter activity (RAW-Dual [2])
COc1ccc(-c2ccc3c(N4CCOCC4)nc(N4CC(C)OC(C)C4)nc3n2)cc1CO (stereo unspecified) (library stock concentration (final ~1000-fold dilution): 10 mM)	0.776	0.716	–
COc1ccc(-c2ccc3c(N4CCOCC4)nc(N4CC(C)OC(C)C4)nc3n2)cc1CO (stereo unspecified)	–	–	0.817
CNC1CCCN(c2c(F)cc3c(=O)c(C(=O)O)cn(C4CC4)c3c2OC)C1 (stereo unspecified) (library stock concentration (final ~1000-fold dilution): 10 mM)	1.04	0.907	–
CNC1CCCN(c2c(F)cc3c(=O)c(C(=O)O)cn(C4CC4)c3c2OC)C1 (stereo unspecified)	–	–	0.995
CSC1(C(=O)Nc2ccc3[nH]nc(-c4ccc(OC(C)C)nc4)c3c2)CCN(CC(=O)N2CC=C(c3ccc(-c4ncn(C)n4)cc3)CC2)C1 (stereo unspecified) (library stock concentration (final ~1000-fold dilution): 10 mM)	0.601	1.25	–
CC(C)c1nc(N(C)S(C)(=O)=O)nc(-c2ccc(F)cc2)c1C=CC(O)CC(O)CC(=O)O (stereo unspecified) (library stock concentration (final ~1000-fold dilution): 10 mM)	0.848	0.956	–
CC(C)c1nc(N(C)S(C)(=O)=O)nc(-c2ccc(F)cc2)c1C=CC(O)CC(O)CC(=O)O (stereo unspecified)	–	–	0.959
Cl.NCCNC(=O)c1ccc(Cl)cn1 (library stock concentration (final ~1000-fold dilution): 10 mM)	0.994	0.941	–
Cl.NCCNC(=O)c1ccc(Cl)cn1	–	–	1.1
Cc1cc(-c2ccc(N=Nc3ccc4c(S(=O)(=O)O)cc(S(=O)(=O)O)c(N)c4c3O)c(C)c2)ccc1N=Nc1ccc2c(S(=O)(=O)O)cc(S(=O)(=O)O)c(N)c2c1O	–	–	1
Cc1cc(-c2ccc(N=Nc3ccc4c(S(=O)(=O)O)cc(S(=O)(=O)O)c(N)c4c3O)c(C)c2)ccc1N=Nc1ccc2c(S(=O)(=O)O)cc(S(=O)(=O)O)c(N)c2c1O (library stock concentration (final ~1000-fold dilution): 10 mM)	0.713	0.804	–
Cn1cc(-c2cc3c(-c4ccc(CNC(=O)c5noc(C(C)(C)C)n5)c(F)c4)ncnc3[nH]2)cn1 (library stock concentration (final ~1000-fold dilution): 10 mM)	0.039	0.396	–
Nc1n[nH]c2nnc(-c3c(-c4ccccc4)nn4ccccc34)cc12 (library stock concentration (final ~1000-fold dilution): 10 mM)	0.275	1.4	–
Nc1n[nH]c2nnc(-c3c(-c4ccccc4)nn4ccccc34)cc12	–	–	0.945
Cc1cc(C)c2c(c1)C(N(Cc1cc(C(F)(F)F)cc(C(F)(F)F)c1)c1nnn(C)n1)CCCN2CC1CCC(C(=O)O)CC1 (stereo unspecified) (library stock concentration (final ~1000-fold dilution): 10 mM)	1.15	1.16	–
Cc1cc(C)c2c(c1)C(N(Cc1cc(C(F)(F)F)cc(C(F)(F)F)c1)c1nnn(C)n1)CCCN2CC1CCC(C(=O)O)CC1 (stereo unspecified)	–	–	1.38
CC1=C(C)C(=O)C(CCCCCCCCCC[P+](c2ccccc2)(c2ccccc2)c2ccccc2)=CC1=O (library stock concentration (final ~1000-fold dilution): 10 mM)	0.012	0.0121	–
CC(N)C1CCC(C(=O)Nc2ccncc2)CC1.Cl.Cl (stereo unspecified) (library stock concentration (final ~1000-fold dilution): 10 mM)	0.926	0.81	–
CC(N)C1CCC(C(=O)Nc2ccncc2)CC1.Cl.Cl (stereo unspecified)	–	–	0.773
CN1CCC(=C2c3ccccc3C=Cc3ccccc32)CC1 (library stock concentration (final ~1000-fold dilution): 10 mM)	0.396	1.49	–
CN1CCC(=C2c3ccccc3C=Cc3ccccc32)CC1	–	–	1.15
COc1cc2c(Nc3ccc(NC(=O)c4ccccc4)cc3)ncnc2cc1OCCCN1CCOCC1 (library stock concentration (final ~1000-fold dilution): 10 mM)	0.0797	0.792	–
COc1cc2c(Nc3ccc(NC(=O)c4ccccc4)cc3)ncnc2cc1OCCCN1CCOCC1	–	–	0.955
CC(=O)Nc1ccc(C(=O)Nc2ccccc2N)cc1 (library stock concentration (final ~1000-fold dilution): 10 mM)	0.557	0.424	–
CC(=O)Nc1ccc(C(=O)Nc2ccccc2N)cc1	–	–	0.418
CC(C)(C)C(O)/C(=C\c1ccc(Cl)cc1)n1cncn1 (stereo unspecified) (library stock concentration (final ~1000-fold dilution): 10 mM)	1.26	0.914	–
